Measured values from ChEMBL document CHEMBL4888484, “Replenishing the malaria drug discovery pipeline: Screening and hit evaluation of the MMV Hit Generation Library 1 (HGL1) against asexual blood stage Plasmodium falciparum ,using a nano luciferase reporter read-out” (2022).
About 540 (0.36%) of roughly 150,000 compounds showed an effect of 50% or more. The list shows a part of the results.

Tested on: Plasmodium falciparum
Assay: Primary screen in NF54 nanoGlo assay, in single point, at 2uM, 72h; a lower Z score goes with more inhibition
Format: functional, Erythrocyte
Conditions: timepoint 72 hour

Row | SMILES | % Inhibition [%] | Z score
1 | COCCN1C[C@@H](c2nc(C(C)C)no2)CCC1=O | -1 | 0.22
2 | CCc1onc(C)c1[C@@H]1CCCN1Cc1ccc(OC(C)C)c(OC)c1 | -2 | 0.28
3 | O=C(Nc1cccc(-c2cnc3n2CCC3)c1)c1ccc(F)cc1F | -14 | 2.16
4 | CC(C)(C)c1nnc(N2C[C@@H]3[C@H](C2)[C@H]2CC[C@@H]3O2)o1 | -1 | 0.2
5 | CCCc1nc(-c2cc3cccc(C)c3nc2NCCN2CCc3ccccc3C2)no1 | 11 | -1.57
6 | Cc1coc(-c2cc(NCc3cccc(O)c3)ccc2C)n1 | -15 | 2.36
7 | O=C(Cn1cc(S(=O)(=O)N2CCOCC2)ccc1=O)Nc1ccc(F)cc1Cl | 4 | -0.76
8 | CC1CN(CC(=O)Nc2nccs2)CC(C)O1 (configuration not stated) | -45 | 5.29
9 | O=C(c1ccccc1)N(CCN1CCOCC1)C1CCOCC1 | -12 | 1.92
10 | CN(CC1CC(O)C1)C(=O)Nc1c(F)cccc1Oc1ccccc1 (configuration not stated) | -17 | 2.77
11 | COCCn1nnnc1[C@]1(N(C)C)CCCN(S(=O)(=O)c2ccc(F)cc2F)C1 | -12 | 1.64
12 | Cn1nccc1NC(=O)Cn1ncc2cc(-c3cccc4cccnc34)ccc21 | 0 | -0.05
13 | CC(C)NS(=O)(=O)NCCNC(=O)C1CCCCCC1 | -1 | 0.11
14 | O=S(=O)(NCC1(c2ccccn2)CC1)c1c(Cl)ccc2scnc12 | -3 | 0.45
15 | C[C@H]1CN(C(=O)c2oc3ccccc3c2Cn2cccn2)CC(=O)N1 | 2 | -0.3
16 | CC(C(=O)Nc1ccc(S(=O)(=O)N2CCOCC2)cc1)N1CCCC1c1ccsc1 (configuration not stated) | 26 | -3.28
17 | Cn1c(Cl)c[n+](C)c1[C@H](O)c1ccccc1 | 27 | -3.03
18 | Clc1cncc(Oc2ncc(Br)cn2)c1 | 14 | -1.82
19 | Cc1ccc(C)c(NC(=O)N2Cc3c(C)nn(-c4ccccc4)c3-n3cccc3[C@H]2c2ccccc2)c1 | -11 | 2.08
20 | FC(F)(F)c1ccccc1-n1nc(C2CC2)nc1-c1csnn1 | -3 | 0.5
21 | Cc1ccc(CCNC(=O)COc2cccnc2)o1 | -17 | 2.93

Row | SMILES | % Inhibition [%] | Z score
22 | CC1(C)C[C@@H](c2ccccc2)N(C(=O)Nc2ncc(C3CCOCC3)s2)C1 | -4 | 0.48
23 | O=C(NC[C@H]1Cc2ccccc2CN1)C(F)(F)F | -4 | 0.43
24 | Cc1occc1C(=O)NCCN1Cc2ccccc2O[C@H](c2ccccc2F)C1 | -9 | 1.71
25 | CCN1C[C@]2(CCCN(C(=O)c3ccccc3N3CCCC3)C2)CCC1=O | 7 | -1.03
26 | CC1CCCC(C)N1S(=O)(=O)c1ccc(NS(=O)(=O)c2cccc(C(=O)O)c2)cc1 (configuration not stated) | 4 | -0.38
27 | O=C1O[C@@H]2C[C@H]3C[C@@H]2[C@@H]1[C@H]3C(=O)N1CCCc2ccccc21 | 6 | -0.74
28 | Cc1cc(-c2cccc(C(=O)NCCc3nnc(C)s3)c2)cc(C)n1 | 6 | -0.8
29 | COc1ccc(N2C(=O)N[C@@H](CCC(=O)N3CCN(C)CC3)C2=O)cc1 | -11 | 1.46
30 | COc1ccc(NC(N)=NCCCn2cc(C)cn2)cc1 | 2 | -0.41
31 | CCN1CCN(C(=O)CCN(CC(C)C)c2nc(-c3ccccc3Cl)nc3ccccc23)CC1 | -2 | 0.39
32 | O=C(CO)N1CCC[C@H](S(=O)(=O)N2CCc3ccccc32)C1 | -17 | 1.67
33 | C=C[C@H]1CCN(C(=O)NCCc2c[nH]cn2)C1 | -6 | 1.22
34 | Cc1ccc(CNC(=O)N2CC(N(Cc3cccnc3)S(C)(=O)=O)C2)cc1 | -1 | 0.2
35 | C[C@H](NS(=O)(=O)CCC1CCOCC1)c1ccc(Cl)cn1 | 6 | -1.15
36 | N#Cc1ccc(OCCN2C(=O)NC(C3CC3)(C3CC3)C2=O)cc1 | 2 | -0.21
37 | CCOC1CC(NC(=O)Cc2ccc(Cl)s2)C12CCOCC2 (configuration not stated) | -20 | 2.19
38 | COc1ccc(/C=C/c2sc3ccc(O)cc3[n+]2C)cc1 | -15 | 2.06
39 | Cn1nc(-c2ccccn2)cc1NC(=O)N1C[C@@H]2[C@H](C1)[C@H]1CC[C@@H]2O1 | -7 | 1.31
40 | CC(NC(=O)CCc1cccs1)C1CCCO1 (configuration not stated) | -5 | 0.53
41 | Cn1cncc1CCC(=O)N1CCc2c(Cl)cc(Cl)cc2C1 | -10 | 0.83
